Assay results from the RNAGym collection of RNA variant scans (doi:10.1073/pnas.2313332121).
Variants at the background level are over-represented here.

B1: TPR 5TU (parent)
chain: GGAUCUUCUCGAUCUAACAAAAAAGACAAAUCUGCCACAAAGCUUGAGAGCAUCUUCGGAUGCAGAGGCGGCAGCCUUCGGUGGCGCGAUAGCGCCAACGUUCUCAACUAUGACACGCAAAACGCGUGCUCCGUUGAAUGGAGUUUAUCAUG

Variants of: B1
Assay: polymerase ribozyme fitness, log enrichment relative to wild type (log ratio); higher = more active; in vitro selection for triplet polymerase activity
How it was run: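 PCR was used to build mutant libraries for each subunit of a heterodimeric triplet polymerase ribozyme, which were then transcribed. A single in vitro selection round, in triplicate, used a frozen incubation at −7 °C and recovered extended constructs by gel excision, streptavidin beads and RT-PCR. Fitness is the logarithm of genotype enrichment relative to wild-type enrichment, averaged over replicates with inverse-variance weights. The logarithm is base 2, and after Illumina sequencing only genotypes with ≥10 input reads and ≥1 read per output were kept.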

Point of comparison: GGAUCUUCUCGAUCUAACAAAAAAGACAAAUCUGCCACAAAGCUUGAGAGCAUCUUCGGAUGCAGAGGCGGUAGCCUUCGGUGGCGUGAUAGCGCCAACGUUCUAAACUAUGACACGCAAAACGCGUGCUCCGUUGAAUGGAGUUUAUCAUG [C72U C87U C105A], “polymerase ribozyme fitness (log ratio)” value -3.79. Against it:
- GGAUCUUCUCGAUCUAACAAAAAAGACAAAUCUGCCACAAAGCUUGAGAGCAUCUUCGGAUGCAGAGGCGGGAGCCUUCGGUGGCGCGAUAUCGCCAACGUUCUCAACUAUGACACGCAAAACGCAUGCUCCGUUGAAUGGAGUUUAUCAUG [C72G G92U G126A] — lower, ≤ -4.2
- GGAUCUUCUCGAUCUAACAAAAAAGACAAAUCUGCCACAAAGCUUGAGAGCAUCUUCGGAUGCAGAGGCGCCAGACAUCGGUGGCGCGAUAACGCCAACGUUCUCAACUAUGACACGCAAAACGCGUGCUCCGUUGAAUGGAGUUUAUCAUG [G71C C75A U77A G92A] — lower, ≤ -4.2
- GGAUCUUCUCGAUCUAACAAAAAAGACAAAUCUGCCACAAAGCUUGAGAGCAUCUUCGGAUGCAGAGGCGCCAGCCUUCGGUGGCGCGAUAGCGCCAACGUUCUCUACUAUGACACGCAAAACGCGUGCUCCGUUGAAUGGAGUUUAUCAUG [G71C A106U] — lower, ≤ -4.2
- GGAUCUUCUCGAUCUAACAAAAAAGACAAAUCUGCCACAAAGCUUGAGAGCAUCUUCGGAUGCAGAGGCGCCAGCCUUCGGUGGUGCGAUAGCGCCAACGUUCUCAACUAUGACACGCAAAACGCGUGCUCCGUUGAAUGGAGUUUAUCAUG [G71C C85U] — higher, -3.27
- GGAUCUUCUCGAUCUAACAAAAAAGACAAAUCUGCCACAAAGCUUGAGAGCAUCUUCGGAUGCAGAGGCGUCAGCCUUCGGUGGCGCGUUAGCGCCAACGUUCUCAACUAUGACACGCAAAACGCGUGCUCCGUUGAAUGGAGUUUAUCAUG [G71U A89U] — higher, -2.83
- GGAUCUUCUCGAUCUAACAAAAAAGACAAAUCUGCCACAAAGCUUGAGAGCAUCUUCGGAUGCAGAGGCGGGAGCCUUCGGUGGCGCGGUAACGCCAACGUUCUCAACUAUGACACGCAAAACGCGUCCUCCGUUGAAUGGAGUUUAUCAUG [C72G A89G G92A G128C] — lower, ≤ -4.2
- GGAUCUUCUCGAUCUAACAAAAAAGACAAAUCUGCCACAAAGCUUGAGAGCAUCUUCGGAUGCAGAGGCGCCAGCCUUCGGUGGCGCGAUAGAGCCAACGUUCUCAACUAUGACACGCAAAACGCGUGCUCCGUUGAAUGGAGUUUAUCAUG [G71C C93A] — lower, ≤ -4.2
- GGAUCUUCUCGAUCUAACAAAAAAGACAAAUCUGCCACAAAGCUUGAGAGCAUCUUCGGAUGCAGAGGCGGUAGCCUUCGGUGGCGCGAUAGCGCCCACGUUGUCAACUAUGACACGCAAAACGCGUGCUGCGUUGCAUGGAGUUAAUCAUG [C72U A97C C103G C131G A137C U146A] — lower, ≤ -4.2
- GGAUCUUCUCGAUCUAACAAAAAAGACAAAUCUGCCACAAAGCUUGAGAGCAUCUUCGGAUGCAGAGGCGGUAGCCUUCGGUGGCGCGAUUGCGCGAACGUUCUCAACUAUGACACGCAAAACGCGUGCUCCGUUGAAUGGAGUUUAUCAUG [C72U A91U C96G] — lower, ≤ -4.2
- GGAUCUUCUCGAUCUAACAAAAAAGACAAAUCUGCCACAAAGCUUGAGAGCAUCUUCGGAUGCAGAGGCGGGAGCCUUCGGUGGCGCGAUAGCGCCAACGUUCUCAACUAUGACACGCAAAACGCGUGCUCCGUUUAAUGAAGUUUAUCAUG [C72G G136U G141A] — lower, ≤ -4.2
- GGAUCUUCUCGAUCUAACAAAAAAGACAAAUCUGCCACAAAGCUUGAGAGCAUCUUCGGAUGCAGAGGCGUCAGCCUUCGGUGGCGCGAUAGCGCCAACGUUCUCAACUAUGACACGCAAAACGCGUGCUCCGUUGAAUGGCGUUUAUCAUG [G71U A142C] — lower, ≤ -4.2
- GGAUCUUCUCGAUCUAACAAAAAAGACAAAUCUGCCACAAAGCUUGAGAGCAUCUUCGGAUGCAGAGGCGACAGCCUUCGGUGGCGCGAUAGCGCCAACGUUCCCAACUAUGACACGCAAAACGCGUGCUCCGUUGAAUGGAGUUUAUCAUG [G71A U104C] — higher, -3.42
- GGAUCUUCUCGAUCUAACAAAAAAGACAAAUCUGCCACAAAGCUUGAGAGCAUCUUCGGAUGCAGAGGCGCCAGCCGUCGGUGGCACGAUAGCGCCAACGUUCUCAACUAUGACACGCAAAACGCGUGCUCCGUUGAAUGGAGUUUAUCAUG [G71C U77G G86A] — lower, ≤ -4.2
- GGAUCUUCUCGAUCUAACAAAAAAGACAAAUCUGCCACAAAGCUUGAGAGCAUCUUCGGAUGCAGAGGCGGGAGCCCUCGGUGGCGCGAUAGCGCCAACGUUCUCAACUAUGACACGCAAAACGCGUGCUCCGUUGAAUGGAGUUUAUCAUG [C72G U77C] — lower, ≤ -4.2
- GGAUCUUCUCGAUCUAACAAAAAAGACAAAUCUGCCACAAAGCUUGAGAGCAUCUUCGGAUGCAGAGGCGGUAGCCUUCGGUGGCGCGAUUACGCCAACGUUCUCAACUAUGACACGCAAAACGCGGGCUCCGUUGAAUGGAGUUUAUCAUG [C72U A91U G92A U127G] — lower, ≤ -4.2
- GGAUCUUCUCGAUCUAACAAAAAAGACAAAUCUGCCACAAAGCUUGAGAGCAUCUUCGGAUGCAGAGGCGUCAUCCUUCGGUAGCGCGAUAGGGCCAAAGUUCUCAUCUAUGACACGCAAAACGCGUGCUCCGUUGAAUGGAGUUUAUCAUG [G71U G74U G83A C93G C99A A107U] — lower, ≤ -4.2
- GGAUCUUCUCGAUCUAACAAAAAAGACAAAUCUGCCACAAAGCUUGAGAGCAUCUUCGGAUGCAGAGGCGUCAGCCUUCGGUGACGCGAUAGCGCCAACGUUCUCAACUAUGACACGCAAAACGCGUGCUCCGUUGAAUGGAGUUUAUCAUG [G71U G84A] — higher, -2.59
- GGAUCUUCUCGAUCUAACAAAAAAGACAAAUCUGCCACAAAGCUUGAGAGCAUCUUCGGAUGCAGAGGCGGUAGCCUUCGGUGGCGUGAUAGCGCCAACGGUCUCAACUAUGACACGCAAAACCCGUGCUCCGUUGAAUGGAGUUUAUCAUG [C72U C87U U101G G124C] — higher, -1.6
